This is an account of results in article PMC9911399, “Two distinct binding modes provide the RNA-binding protein RbFox with extraordinary sequence specificity”.

Changes are numbered by the printed parent chain; changes in the protein carry UniProt numbers. This is one part of the list.

T1: RBFOX1 RRM (Homo sapiens, UniProt Q9NWB1 109-208)
T1 sequence: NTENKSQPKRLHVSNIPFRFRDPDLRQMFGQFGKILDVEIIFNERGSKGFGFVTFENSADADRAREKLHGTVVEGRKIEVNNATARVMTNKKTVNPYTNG

B1: GCUCAUC (DNA:RNA)
RNA: GGGAGACCGGAAUUCAGAUUGUCCGCUCAUCUUAAAUCCCGUCGUAGCCACCA
DNA 1: CAATCTGAATTCCGGTCTCCC
DNA 2: TGGTGGCTACGACGGGATT
B2: AUUGCUG (DNA:RNA)
RNA: B1 RNA with G25A, C26U, C28G, A29C, C31G
DNA 1: CAATCTGAATTCCGGTCTCCC
DNA 2: TGGTGGCTACGACGGGATT
B3: UAUGGAU (DNA:RNA)
RNA: B1 RNA with G25U, C26A, C28G, A29G, U30A, C31U
DNA 1: CAATCTGAATTCCGGTCTCCC
DNA 2: TGGTGGCTACGACGGGATT
B4: AUAUUUU (DNA:RNA)
RNA: B1 RNA with G25A, C26U, U27A, C28U, A29U, C31U
DNA 1: CAATCTGAATTCCGGTCTCCC
DNA 2: TGGTGGCTACGACGGGATT
B5: CAACGCC (DNA:RNA)
RNA: B1 RNA with G25C, C26A, U27A, A29G, U30C
DNA 1: CAATCTGAATTCCGGTCTCCC
DNA 2: TGGTGGCTACGACGGGATT
B6: CGAUAGG (DNA:RNA)
RNA: B1 RNA with G25C, C26G, U27A, C28U, U30G, C31G
DNA 1: CAATCTGAATTCCGGTCTCCC
DNA 2: TGGTGGCTACGACGGGATT
B7: GCCUCUG (DNA:RNA)
RNA: B1 RNA with U27C, C28U, A29C, C31G
DNA 1: CAATCTGAATTCCGGTCTCCC
DNA 2: TGGTGGCTACGACGGGATT
B8: CUGUCAA (DNA:RNA)
RNA: GGGAGACCGGAAUUCAGAUUGUCCCUGUCAAUUAAAUCCCGUCGUAGCCACCA
DNA 1: CAATCTGAATTCCGGTCTCCC
DNA 2: TGGTGGCTACGACGGGATT
B9: GGCGCCA (DNA:RNA)
RNA: B8 RNA with C25G, U26G, G27C, U28G, A30C
DNA 1: CAATCTGAATTCCGGTCTCCC
DNA 2: TGGTGGCTACGACGGGATT

This test has as its target T1, RBFOX1 RRM. Briefly: EMSA; HiTS-Eq, 1 nM pool, 10 min; buffer printed only for the single-RNA assays: 10 mM Tris pH 7.5, 150 mM NaCl, 3.4 mM EDTA, 0.001% NP-40, 30 C. The conditions noted are these: tags: His6 N-terminal (pET28a); label: 5' 32P. An outline of the steps:
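Purified wild-type or mutant RbFox RRM at increasing concentrations was equilibrated with 1 nM of 5′-radiolabelled RNA carrying 7 randomized nucleotides for 10 min in 50 µL. Unbound RNA was separated by 8% native PAGE and sequenced. Relative association constants came from read-count changes of each RNA species compared with the control reaction, normalised to the cognate motif.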
Regarding B1, the binding signal was 0.0109 KA relative to UGCAUGU. As for B2, the figure is 0.0174 KA relative to UGCAUGU. As for B3, the figure is 0.00577 KA relative to UGCAUGU. The value for B4 was 0.00334 KA relative to UGCAUGU. On to B5, for which the binding signal was 0.00593 KA relative to UGCAUGU. Consider B6, for which the binding signal was 0.0113 KA relative to UGCAUGU.

As for B7, the binding signal is 0.0199 KA relative to UGCAUGU. On to B8, for which the binding signal was 0.00899 KA relative to UGCAUGU.

Consider B9, for which the binding signal was 0.00258 KA relative to UGCAUGU.
